Measurements reported in FireProtDB (doi:10.1016/j.jmb.2004.06.076).

Conditions: Escherichia coli, 10 °C, Urea, Fluorescence, sodium phosphate 50 mM, reversible: Unknown

Substance: Colicin-E9 immunity protein wild type (chain not printed)
- unfolding free energy (pH 6, Na2SO4 0.4 M): 5.9 kcal/mol
- unfolding free energy (pH 7): 6.48 kcal/mol
